{
  "source": "patent US8304182B2",
  "about": "“Methods of identifying anti-cancer agents and uses thereof” (The Trustees of the University of Pennsylvania, priority 2003, dated 2012)",
  "key": {"[1]": {"tested_on": "ATP", "test": "Determination of cellular ATP", "format": "cell-based, mouse", "details": "oligomycin 5 μg/ml, FIG. 7B"}, "[2]": {"tested_on": "wild-type cells", "details": "0.5 mM MNNG or 2 μM staurosporine, 9 h"}, "[3]": {"tested_on": "bax^−/−bak^−/− cells", "details": "0.5 mM MNNG or 2 μM staurosporine, 9 h"}, "[4]": {"tested_on": "wild-type MEFs", "details": "wild-type cells, staurosporine, FIG. 3F"}},
  "data": [
    {"smiles": "CC[C@H]1/C=C/C=C/C[C@@H](C)[C@H](O)[C@@](C)(O)C(=O)[C@@H](C)[C@H](O)[C@@H](C)C(=O)[C@@H](C)[C@H](O)[C@@H](C)/C=C/C(=O)O[C@@H]2[C@H](C)[C@H](CC1)O[C@]1(CC[C@H](C)[C@H](C[C@@H](C)O)O1)[C@H]2C", "note": "[oligomycin]", "values": [
      {"measurement": "ATP level on inhibition of oxidative phosphorylation", "setting": "[1]; IL3-deprived bax^−/−bak^−/− cells", "value": "fell dramatically"},
      {"measurement": "ATP level on inhibition of oxidative phosphorylation", "setting": "[1]; IL-3 treated bax^−/−bak^−/− cells", "value": "did not affect the ATP level"}
    ]},
    {"smiles": "CN[C@@H]1C[C@H]2O[C@@](C)([C@@H]1OC)n1c3ccccc3c3c4c(c5c6ccccc6n2c5c31)C(=O)NC4", "note": "[staurosporine]", "values": [
      {"measurement": "morphologic features of cell death by electron microscopy", "setting": "[2]", "value": "apoptotic morphological changes"},
      {"measurement": "morphologic features of cell death by electron microscopy", "setting": "[3]", "value": "apoptotic features were not observed"},
      {"measurement": "cell death", "setting": "[4]", "value": "killed"}
    ]}
  ]
}
